Common to all, as to experiment: SPR, receptor fixed on CM5 chip
In general terms: SPR reads the build-up and loss of mass on a sensor chip optically.

The target of test [1] is T1, human IL2Rα (human, UniProt P01589 22-213, limits assumed).
T1 construct: also called IL2 receptor α; CD25
T1 sequence (looked up): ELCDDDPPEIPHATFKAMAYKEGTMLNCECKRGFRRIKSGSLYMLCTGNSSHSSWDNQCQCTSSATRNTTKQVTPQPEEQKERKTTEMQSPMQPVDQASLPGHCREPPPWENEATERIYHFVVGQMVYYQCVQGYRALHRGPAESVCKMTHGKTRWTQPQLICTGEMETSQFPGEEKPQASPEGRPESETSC

The target of test [2] is T2, human IL2Rβγ (human, UniProt P14784 27-239; P31785 23-262, limits assumed).
T2 construct: Dimeric receptor fixed to a CM5 chip
T2 sequence (looked up) 1: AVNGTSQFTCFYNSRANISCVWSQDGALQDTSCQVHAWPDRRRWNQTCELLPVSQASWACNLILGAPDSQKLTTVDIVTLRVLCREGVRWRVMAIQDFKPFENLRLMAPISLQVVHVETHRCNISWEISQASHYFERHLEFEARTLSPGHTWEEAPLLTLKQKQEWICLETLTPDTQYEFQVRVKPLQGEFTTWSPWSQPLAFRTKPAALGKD
T2 sequence (looked up) 2: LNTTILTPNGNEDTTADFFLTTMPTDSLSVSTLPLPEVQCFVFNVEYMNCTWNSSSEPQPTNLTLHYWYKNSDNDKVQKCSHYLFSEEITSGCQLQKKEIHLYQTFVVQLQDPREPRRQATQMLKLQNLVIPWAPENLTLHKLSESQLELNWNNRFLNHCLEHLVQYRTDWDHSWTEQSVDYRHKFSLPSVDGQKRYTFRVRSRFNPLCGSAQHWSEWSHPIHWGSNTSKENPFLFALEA

For test [3], the target named is T3, human IL2Rαβγ (human, UniProt P01589 22-213; P14784 27-239; P31785 23-262, limits assumed).
T3 construct: Trimeric receptor fixed to a CM5 chip
T3 sequence (looked up) 1: T1 sequence (looked up)
T3 sequence (looked up) 2: T2 sequence (looked up) 1
T3 sequence (looked up) 3: T2 sequence (looked up) 2

The term Kd denotes the equilibrium constant for the complex coming apart.

B1: Aldesleukin (Proleukin, Novartis, Switzerland) (ligand)
chain: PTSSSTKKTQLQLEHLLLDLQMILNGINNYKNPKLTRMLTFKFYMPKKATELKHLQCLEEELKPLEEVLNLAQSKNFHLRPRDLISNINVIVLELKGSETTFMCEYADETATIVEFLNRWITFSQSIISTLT
notes: Marketed IL2 analogue; also called positive control (for IL2 receptors)
Consider B1, for which the Kd is 15.8 nM in test [1], 0.25 nM in test [2] and 0.05 nM in test [3]. The “βγ / αβγ (ratio of binding affinity to IL2Rβγ over IL2Rαβγ)” value in test [2] amounted to 5 ratio.

The record behind these values is patent EP4578871A1 (Mustbio Co., Ltd., dated 2025).
